# In US20170043031A1, “IGF-1R ANTIBODY-DRUG-CONJUGATE AND ITS USE FOR THE TREATMENT OF CANCER” (PIERRE FABRE MEDICAMENT, priority 2014, published 2017):
# Where a chain is given by its changes, count along the chain named.
# B1: hz208F2 H077/L018: humanized 208F2 variant, heavy chain SEQ ID No. 81, light chain SEQ ID No. 59 (antibody)
# heavy: QVQLVQSGAEVKKPGASVKVSCKASGYTFTSYYIHWVRQAPGQGLEWMGWIWPGDGSTKYAQKFQGRVTMTRDTSTSTVYMELSSLRSEDTAVYFCASPMITPNYAMDYWGQGTLVTVSSASTKGPSVFPLAPSSKSTSGGTAALGCLVKDYFPEPVTVSWNSGALTSGVHTFPAVLQSSGLYSLSSVVTVPSSSLGTQTYICNVNHKPSNTKVDKRV[human IgG1 Fc not written out]
# light: DIQMTQSPSSLSASVGDRVTITCRASQDISKYLNWYQQKPGKAPKLLIYYTSRLQSGVPSRFSGRGSGTDYSLTISSLQPEDFATYFCQQGSTLPYTFGGGTKVEIKRTVAAPSVFIFPPSDEQLKSGTASVVCLLNNFYPREAKVQWKVDNALQSGNSQESVTEQDSKDSTYSLSSTLTLSKADYEKHKVYACEVTHQGLSSPVTKSFNRGEC
# modifications: hz208F2 heavy chain H077 full length; hz208F2 light chain L018 full length
# B2: c212A11: chimeric 212A11 antibody, heavy chain SEQ ID No. 24, light chain SEQ ID No. 29 (antibody)
# heavy: QVQLQQSGPELVKPGASVKMSCKASGYTFTSYYIHWVKQRPGQGLEWIGWIWPGDGSTKYNEKFKGKTTLTADKSSSTAYMFLSSLTSEDSAVYFCASPMITPNYAMDYWGQGASVTVSSASTKGPSVFPLAPSSKSTSGGTAALGCLVKDYFPEPVTVSWNSGALTSGVHTFPAVLQSSGLYSLSSVVTVPSSSLGTQTYICNVNHKPSNTKVDKRV[human IgG1 Fc not written out]
# light: DIQMTQTTSSLSASLGDRVTISCRASQDINKYLNWYQQQPDGTVKLLIYYTSRLHSGVPSRFSGRGSGTDYSLTISNLEQEDIATYFCQQGSTLPYTFGGGTKLEIKRTVAAPSVFIFPPSDEQLKSGTASVVCLLNNFYPREAKVQWKVDNALQSGNSQESVTEQDSKDSTYSLSSTLTLSKADYEKHKVYACEVTHQGLSSPVTKSFNRGEC
# modifications: c212A11, heavy chain, full length; c212A11, light chain, full length
# B3: c214F8: chimeric 214F8 antibody, heavy chain SEQ ID No. 25, light chain SEQ ID No. 30 (antibody)
# heavy: B2 heavy with P9S, M20L, K63R
# light: B2 light with I21F, N30S, V44I, S76T, T93A
# modifications: c214F8, heavy chain, full length; c214F8, light chain, full length
# B4: c219D6: chimeric 219D6 antibody, heavy chain SEQ ID No. 26, light chain SEQ ID No. 31 (antibody)
# heavy: B2 heavy with A16D, T28S, Y33F, A72T, S84N
# light: B2 light with N30S
# modifications: c219D6, heavy chain, full length; c219D6, light chain, full length
# B5: c213B10: chimeric 213B10 antibody, heavy chain SEQ ID No. 27, light chain SEQ ID No. 32 (antibody)
# heavy: B2 heavy with P9S, K63R
# light: B2 light with N30S, V44I, S76T, T93A
# modifications: c213B10, heavy chain, full length; c213B10, light chain, full length
# B6: hz208F2 H049/L021: humanized 208F2 variant, heavy chain SEQ ID No. 65, light chain SEQ ID No. 61 (antibody)
# heavy: B1 heavy with I34M, T74K, T76S, F95Y
# light: B1 light with Q55H, Y71F
# modifications: hz208F2 heavy chain H049 full length; hz208F2 light chain L021 full length
# B7: hz208F2 H076/L021: humanized 208F2 variant, heavy chain SEQ ID No. 79, light chain SEQ ID No. 61 (antibody)
# heavy: B1 heavy with F95Y
# light: B1 light with Q55H, Y71F
# modifications: hz208F2 heavy chain H076 full length; hz208F2 light chain L021 full length
# Key:
# IGF-1R on MCF-7 cells = biological target: T1, IGF-1R on MCF-7 cells (Homo sapiens, UniProt P08069); assay: IGF-1R internalization by FACS on MCF-7 cells (4° C. vs 37° C., 4 h); assay type: cell-based; conditions: for EC50: MCF-7, chimeric antibodies, read-out: ΔMFI_EC50
# T1 construct: all generated antibodies are capable to recognize the native IGF-1R form; host or cells: MCF-7
# Procedure: (§1) MCF-7 cells were incubated with 10 μg/ml of chimeric antibodies at 4° C. for 20 min. Then, cells were washed and incubated at 4° C. or 37° C. for 4 h. The quantity of cell-surface bound antibody was determined using a secondary antibody. The ΔMFI defined as the difference between MFI measured at 4° C. and MFI measured at 37° C. after a 4 hour incubation time corresponded to the quantity of internalized Ab. The percentage of internalization at 10 μg/ml of Ab were calculated as followed 100*(MFI at 4° C.−MFI at 37° C.)/MFI at 4° C. and presented in Table 11.
# as §1, with “The capacity of the mAb hz208F2 VH3NL3 to be internalized was assessed by flow cytometry. MCF-7” for “MCF-7”, “of” for “of chimeric”, “13.” for “11.”
# as §1, with “of humanized” for “of chimeric”, “secondary antibody on a FacsCalibur Flow cytometer (Becton Dickinson).” for “secondary antibody.”, “Ab was” for “Ab were”, “C. The humanized antibody hz208F2 H077/L018 is able to induce a significant internalization of IGF-1R.” for “C. and presented in Table 11.”
# [1] = biological target: T2, IGF-1R on MCF-7 cell line (Homo sapiens, UniProt P08069); assay: FACS binding on MCF-7 in buffers at different pH; conditions: MCF-7, pH ranging from 5 to 8
# T2 construct: all generated antibodies are capable to recognize the native IGF-1R form; host or cells: MCF-7
# Procedure: In order to investigate whether some of our antibodies display such a property and to correlate this property to cytotoxic activity, the binding of the murine anti-hIGF-1R Mabs on MCF-7 cell line was done in buffers at different pH. Increasing concentrations of murine mAbs were incubated on MCF-7 cell line for 20 min at 4° C. in different pH ranging from 5 to 8. Cells were then washed 3 times and incubated with the appropriate secondary antibody coupled with Alexa 488 in FACS buffer. Cells were incubated for 20 additional minutes at 4° C. in the dark and then washed 3 times in FACS buffer. The binding of anti-hIGF-1R antibodies was immediately performed on viable cells which were identified using propidium iodide that stained dead cells. The binding EC50 expressed in molarity (M) was calculated using a nonlinear regression analysis (GraphPad Prims 4.0).
# The binding of the humanized anti-IGF-1R Mabs on MCF-7 cell line was done in buffers at different pH. Increasing concentrations of humanized mAbs were incubated on MCF-7 cell line for 20 min at 4° C. in different pH ranging from 5 to 8. Cells were then washed 3 times and incubated with the appropriate secondary antibody coupled with Alexa 488 in FACS buffer. […] The binding EC50 expressed in molarity (M) was calculated using a nonlinear regression analysis (GraphPad Prims 4.0).
# [2] = biological target: T3, human native IGF-1R on MCF-7 cell line (Homo sapiens, UniProt P08069); assay: FACS titration on MCF-7 cell line; conditions: humanized variants, binding
# T3 construct: all generated antibodies are capable to recognize the native IGF-1R form; host or cells: MCF-7
# Procedure: The five murine IGF-1R antibodies were chimerized. The binding properties of both the murine and the chimeric IGF-1R antibodies were evaluated by FACS analyses on the human MCF-7 breast adenocarcinoma cell line (ATCC#HTB-22) using increasing antibody concentrations. For that purpose, cells (1×10^6 cells/ml) were incubated with IGF-1R antibodies for 20 min. at 4° C. in FACS buffer (PBS, 0.1% BSA, 0.01% NaN3). They were then washed 3 times and incubated with the appropriate secondary antibody coupled with Alexa 488 for 20 additional minutes at 4° C. in the dark before being washed 3 times in FACS buffer. The binding of anti-IGF-1R antibodies was immediately performed on viable cells which were identified using propidium iodide (that stains dead cells). The maximum of signal intensity obtained with each antibody was designed as Bmax and expressed in mean of fluorescence intensity (MFI). The EC50 of binding expressed in molarity (M) was calculated using a nonlinear regression analysis (GraphPad Prims 4.0).
# The binding properties of the humanized variants were evaluated by FACS analyses on the human MCF-7 breast adenocarcinoma cell line and the monkey cell line Cos-7 using increasing antibody concentrations. […] The EC50 of binding expressed in molarity (M) was calculated using a nonlinear regression analysis (GraphPad Prims 4.0).
# [3] = MCF-7, 10 μg/ml, 4 h (Table 13c)
molecule,measurement,setting,value
B1,% Internalization,IGF-1R on MCF-7 cells; [3],88%
same,ΔMFI,IGF-1R on MCF-7 cells; [3],468
same,binding capacity at acidic pH,[1],Acidic pH decreases binding capacity
B2,EC50,IGF-1R on MCF-7 cells,0.27 nM
B3,EC50,IGF-1R on MCF-7 cells,0.22 nM
B4,EC50,IGF-1R on MCF-7 cells,0.44 nM
B5,EC50,IGF-1R on MCF-7 cells,0.23 nM
B6,EC50,[2],0.66 nM
B7,EC50,[2],0.58 nM
